Measurements taken from the RNAGym collection of RNA variant scans (doi:10.7554/elife.90254).
The source gives no read counts; variants with many changes may rest on few reads.

B1: LINE1-mini (parent)
chain: GGCAGAGCUCAACACAGCGUGGCAAAGUGGCUGUGGCUAGACUGCC

Variants of: B1
Experiment: self-cleavage, relative activity (ratio to wild type); higher = more cleavage; in vitro, sequencing; the parent is a self-cleaving ribozyme

| Variant | self-cleavage |
| --- | --- |
| GGCAGAGCUCAUCACAGCAGGGCAAUGUGGCUGUGGCUAGACUGCC | 0.24 |
| GGCAGAGCUCAACACGGCGUGGCAAAUUGGCUGUGUCUUGACUGCC | 0.04 |
| GACAGAGCUCGACAUAGCGUGGCAAAGUGGCUGUGGCUAGACUGAC | 0.04 |
| GGCAGAGCUCAACACAGCGUGGCAAAGUGGAUGUGGGUAGACUGCU | 0.02 |
| GGCAGAGGUCAACACAGCGUGGCAAAGUGGCUGUAGCUAGACUACC | 0.03 |
| GGCAGAGCUCGUCACUGCGUAGCAAAGUGGCUGUGGCUAGACUGCC | 0 |
| GGCAGAGCUCAACAGAGCGUAGCAAAGUGGCUGUGGCUAAACUGCC | 0.01 |
| GGCAGAGCUCAACACACCGUGGCAAAGUGGCUGUAGCUCGACUGCC | 0.03 |
| GGCAGAACUCAACACAGCAUGGCAAAGUGGCUGUGGUUAGACUGCC | 0.33 |
| GGCAGAGUUCAUCACAGUGUGGCAAAGUGGCUGUGGCUAGACUGCC | 0.13 |
| GGCAAAGCUCAACACUGAGUGGCAAAGUGGCUGUGGCUAGACUGCC | 0.01 |
| GGCAGAGCUCAACACAGCGUGACAAAGGGGCUGUGGCUAGACCGCC | 0.01 |
| AGCAGAGCUCAACGCAGCGUGGCAAAGUGGGUGUGUCUCGACUGCC | 0.09 |
| GGCAGAGCUCAACACAGCGUAGCAAUAUGGCGCUGGCUAGACUGCC | 0.05 |
| UGCAGAGCUCAACACAGCGUGGCAAAGUUGCUGUGGGUAGACUGCC | 0.08 |
| GGCAGAGCUCAACACAGCUUGGCAAAACUGCUGUGCCUAGACUGCC | 0.08 |
| AGCAGAGCUCAACACAGCGUGGCAAAGUGCCUGUGGCUAGUCUGCC | 0.35 |
| GGAAGAGCUCAACACAGCGUGGCAAAGUGGCUGUGGUUAGCCUGCC | 0.04 |
| GGCAGAGCUCAAUACAGCGUGGCAAUGUGGCUGUGGCAAGACUGCC | 0.08 |

| Variant | self-cleavage |
| --- | --- |
| CGCAGCGUUCAACACAGCGUGGCAAAGUGGCUGCGGCUAGACUGCC | 0.08 |
| GGCAGAGCUCAACACAGCGUGGCAAAGUGUCAGUGGCUAGAAUGUC | 0.03 |
| GGCAGGGCUCAACACAGCAUGGCAAAGUGGCAGUGGCUGGACUGCC | 0.01 |
| GGCAGAGCUCAACACAGCCUAGCAAAGUGGCUGUUGCUAGACUGCC | 0.05 |
| GGAAUAGCUCAACACAGCGUCGCAAAGAGGCUGUGGCUAGACUGCC | 0.03 |
| GGCAGAGCUCAAAACAGCGUGGCAAAGUGGCUGUGGCUUGACUUCC | 0.1 |
| GGCAGAGCUCAACAUAGCGUGCCAAAUUGGCUGUGUCUAGACUGCC | 0.14 |
| GGCUGAGCUCAACACAGCGUGGCAAAGUGGCUGUGGUCAGACUGCC | 0.01 |
| GGCAGAGCUCGUCACAGCGUGGCAAAGUAUCUGUGGCUAGACCGCC | 0.02 |
| GGCAGAGCUCAACACAGCUUUGCAAAGUGGCUGUGGCCAGACUGCC | 0.02 |
| GGGAGAGCUCAACACAGCGUGGCAAAGAGGCCGUGGCUAGACUGCC | 0.19 |
| GGCAGAACUCAAAACAGCGUAGCAAAGUGUCUGUGCCUAGACUGCC | 0.31 |
| CGCAGAGCUCAACACAGCGAGGCAAAGUGGCUGUGGCUAGGCUGCC | 0.03 |
| GGCAGAGCUCAACACAGCGUGGCAAAGGGGCUGUGGUUAGAAUGCC | 0.1 |
| GGCAGAGCUCAACACAGCGUUGCAAAGUGGCUUUGGCUAGACUUCC | 0 |
| GGCAGAGCUCAACACAGCGUGGCAAACUGGCUGUGUCUAGACGGCC | 0.04 |
| GGCAGAUCUCAAUACAGUGUGGCAAAGUGGCAGUGGCUAGACUGUC | 0.28 |
| GGCAGAGCUCAACACAGCGUGGCACAGCGGGUGUGGCUAGACUGCU | 0.04 |
| GGCAGAGCUCAACACGACGUGGCAAAGUGGAUGUGGCUAGACUGCC | 0 |

| Variant | self-cleavage |
| --- | --- |
| GUCAGAGCUCAACCAAGCGUGGCAAAGUGGCUGUGUCUAGACUGCC | 0.04 |
| GGCAGAGCUCAAGACAGCGUGGCAAAUUGGCUGUGGCUAGAUUGCC | 0.03 |
| CGCAGAGCUCAUCACAGUGUGGCAAAGUGGCUGUGCCUAGACUACC | 0.02 |
| GGCAGAGCUCAACACAGCGUGGCAAAGUGACUGUGGCUAGAAAGCC | 0.04 |
| GGCUGAGCUCAACACAGCAUGGCAAAGUGGCUGCGGCUAGACUGCC | 0.09 |
| GGCAGAGCUCAACACAGCGUGUCAAAGUGGGUGUGGCUAGACUGCA | 0.09 |
| GGCAGAGCUCUCCACAUCGUGGCAAAGUGGCUGUGGCUACACUGCC | 0.01 |
| UGCAGAGGUCACCACAGCGUGGCAAAGUGGCUGUGGCUAGACUGCC | 0.01 |
| GGCAGAGCUCUACACAGCGUGGCAAAGUGGCUGCGGCUAGACUGCA | 0.03 |
| GGCACAGCUCAACACAGCGUGGCAAAGUGCCUGUGGCUAGUCUUGC | 0 |
| GGCAGAGCUCAACACAGCGAUGCAAAGUGGCUGUUGCUAGACUGCU | 0.04 |
| GGCGAAGCUCAACACAGAGUGGUAAAGUGGCUGUGGCUAGCCUGCC | 0.01 |
| GGCAGAGCUCAACCCGGCGUGGCAAAGUGUCUGUGGCUAGACUGCC | 0.04 |
| GGCAGUCCUCAACACAGCGGGGCCAAGUGGCUGUGGCUAGACUGCC | 0.23 |
| GGCUGAGCUCAACACAGCAUGGCAAAGUUGCUGUGGCUAGACUGCC | 0.05 |
| GGCAGAGCUCAACACAACGCGGCAACGUGGCUGUGGCUAUACUGCC | 0.02 |
| GGGAGAGCUCAACACAGCGUGGCAAAGUGGCUGUCGCUAGGCUGCC | 0.11 |
| AGCACAGCUCAACACAGCGUGGCAAACUGGCUGUGGCUAGACUGCC | 0.32 |
